# Reference: PubChem BioAssay (NCATS)
# Values joined by “and” are separate entries in the source; they are usually repeats but may differ in a detail not shown here. Equal entries are not always repeated. Inconclusive means that the source gave no clear call. Such entries were picked first, then a sample of the others. For some of these results: A potency beside an inconclusive call is a rough fit, not a confirmed value. Active and inactive are the calls of the source. Unless noted, the call rests on the fitted dose curve; in most records, active means well fitted curve in either direction with a large enough effect (not every such curve was filed as active); inconclusive means small, poorly fitted or top-dose-only effect, or another doubt; inactive means flat fitted curve, though single readings scatter.
# What was measured:
# [1] = AP1 Signaling Pathway (AID 357); conditions: ME-180 AP-1-bla reporter, EGF-induced, beta-lactamase ratio, 5 h;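 further: ME-180 reporter cells stimulated with EGF at its EC50 level; top concentration of the series differs between compounds; on the % scale 0 is the no-effect control and ±100 the full control effect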
# In short: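 Read-out was the 460nm/530nm emission ratio (excitation 405nm) after CCF4 loading for 2.5 hours at room temperature. Cells carried an AP-1-driven beta-lactamase reporter, were stimulated with EC50 EGF plus compound for 5 hours, and AC50 values came from titrations.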
# [2] = NFAT Signaling Pathway (AID 444); conditions: Jurkat NFAT-bla M1, carbachol, beta-lactamase ratio, 5 h;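 further: carbachol stimulus at about its EC50 of 1 µM final; on the % scale 0 is the no-effect control and ±100 the full control effect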
# In short: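 Jurkat cells carrying an NFAT-driven β-lactamase reporter and co-transfected muscarinic M1 receptor were treated with compound plus carbachol (1 uM final, an EC50 level) for 5 h at 37 °C. CCF4 loading followed for 1 h at RT; 460/530 nm ratio gave %activity.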
# [3] = Stat Signaling Pathway (AID 446); conditions: ME-180 SIE beta-lactamase reporter, IL-6 stimulated, 5 h; at 17.2 µM (top of the series) unless noted;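 further: ME-180 cervical cancer cells given 40 pM IL-6 alongside compound; SIE-controlled beta-lactamase reporter measured as 460/530 nm FRET emission ratio; top concentration of the series differs between compounds; on the % scale 0 is the no-effect control and ±100 the full control effect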
# In short: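 ME-180 SIE-bla cells; overnight plating; cpd + IL-6 40 pM, 5 h, 37 C; LiveBLAzer 2.5 h RT; 460/530 nm emission ratio. Normalized to 300 pM IL-6 and 125 nM JAK inhibitor controls.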
# [4] = Cell Viability - Jurkat (AID 426;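 active means dose-dependent loss of cell ATP signal giving a full or clear fitted curve, ranked by lower potency value; inconclusive means weak partial curve or response only at the top dose; inactive means no loss of viability signal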;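 further: potency means the concentration at half of the fitted maximal effect; cells exposed to compound for 40 hours at 37 °C before ATP read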); conditions: qHTS
# In short: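 Seed 5000 Jurkat E6-1 cells/well; add compound; incubate 40 hr at 37 °C; add CellTiter-Glo; wait 20 min at room temperature; read luminescence. Fit concentration-response with Hill equation for AC50.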
# [5] = Cell Viability - Hek293 (AID 427;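 active means compounds whose dose-response curve shows a full or clear partial loss of cell viability, called from curve shape rather than a numeric limit; inconclusive means weak partial curves or an effect only at the top dose; inactive means no dose-dependent loss of viability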;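 further: potency means the concentration at half of the fitted maximal effect; cells exposed to compound for 40 hours at 37 °C before reading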); conditions: qHTS
# In short: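 Luminescent ATP read-out (CellTiter-Glo, 20 min RT) after 40 hr compound exposure at 37 °C in complete medium. Signal normalized to DMSO (basal) and 100 uM tamoxifen (100% inhibition); concentration-response fitted with the standard Hill equation to give AC50.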
# [6] = Cell Viability - HepG2 (AID 433; calls by dose curve;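 further: potency means the concentration at half of the fitted maximal effect; potency for ATP loss meaning cytotoxicity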); conditions: qHTS
# In short: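 Cytotoxicity is scored as loss of intracellular ATP in HepG2 cells exposed to compounds for 40 h. Concentration-response curves, normalized to DMSO and 100 uM tamoxifen, give AC50 values.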
# [7] = Cell Viability - SK-N-SH (AID 435; calls by dose curve;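 further: potency means the concentration at half of the fitted maximal effect; compound exposure lasted 40 h at 37 °C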); conditions: SK-N-SH neuroblastoma cell viability qHTS
# In short: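 Cells seeded at 1500 per well and incubated 5 hr at 37 °C. Compound added, then 40 hr at 37 °C. CellTiter-Glo added, 20 min at room temperature, luminescence read.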
# [8] = Cell Viability - BJ (AID 421; calls by dose curve;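 further: potency means the concentration at half of the fitted maximal effect; cells exposed to compound for 40 hours at 37 °C before readout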); conditions: BJ fibroblast viability, qHTS
# In short: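 Luminescent ATP signal (CellTiter-Glo, 20 min at room temperature) served as the read-out of viable BJ cells after 40 hours of compound treatment. Responses were scaled between DMSO and 100 uM tamoxifen, and AC50 values were obtained by Hill modeling.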
# [9] = target: Cytochrome P450 1A2 (Homo sapiens) (UniProt P05177); assay: p450-cyp1a2 (AID 410; calls by dose curve; further: potency means the concentration at half of the fitted maximal effect); conditions: recombinant CYP1A2, luciferin-ME demethylation, luminescence
# In short: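 Inhibition was calculated relative to 57 uM furafylline (full inhibition). The reaction used human CYP1A2 at 20nM with Luciferin-ME at its Km, 100uM, driven by an NADPH-regenerating system for 60 min at room temperature.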
# [10] = Cell Viability - MRC5 (AID 434; calls by dose curve;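 further: potency means the concentration at half of the fitted maximal effect; cells exposed to compound for 40 hours at 37 °C; potency reflects cytotoxicity seen as loss of intracellular ATP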); conditions: MRC5 lung fibroblast viability, qHTS
# In short: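 MRC5 normal human lung fibroblasts (1500/well) were treated with compounds for 40 hr at 37 °C in complete medium, and viable cells were measured as intracellular ATP by CellTiter-Glo luminescence. AC50 came from Hill fits, normalized to DMSO and 100 uM tamoxifen.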
# Tags describe the fitted curve by direction and shape.
# Sequence of UniProt P05177 (P05177 whole entry, looked up): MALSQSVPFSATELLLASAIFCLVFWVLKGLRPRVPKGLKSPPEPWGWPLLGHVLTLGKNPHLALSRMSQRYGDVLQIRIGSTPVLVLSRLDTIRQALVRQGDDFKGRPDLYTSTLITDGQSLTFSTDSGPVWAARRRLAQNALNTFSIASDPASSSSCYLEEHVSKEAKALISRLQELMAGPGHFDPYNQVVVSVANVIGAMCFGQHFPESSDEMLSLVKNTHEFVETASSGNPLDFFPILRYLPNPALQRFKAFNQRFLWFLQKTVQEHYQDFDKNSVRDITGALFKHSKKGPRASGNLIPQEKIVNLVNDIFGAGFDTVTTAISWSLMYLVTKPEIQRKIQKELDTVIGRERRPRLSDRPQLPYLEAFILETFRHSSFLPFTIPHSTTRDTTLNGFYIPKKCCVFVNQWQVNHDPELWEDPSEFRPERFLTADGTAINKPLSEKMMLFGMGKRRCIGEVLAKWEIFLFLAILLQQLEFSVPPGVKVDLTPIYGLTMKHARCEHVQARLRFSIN
structure (smiles),measurement,setting,value
CC[C@@]1(O)C(=O)OCc2c1cc1n(c2=O)Cc2cc3c(CN(C)C)c(O)ccc3nc2-1,"activity change, negative = inhibition",[1]; at 7.69 µM (top of the series),inconclusive: -90% [inhibitor]
same,"activity change, negative = inhibition",[2]; at 7.69 µM (top of the series),inconclusive: -120% [inhibitor]
same,"activity, negative = inhibition",[3],inconclusive: -100% [inhibitor] [at 7.69 µM]
CN(C)CCCN1c2ccccc2C(C)(C)c2ccccc21,"activity change, negative = inhibition",[1]; at 7.69 µM (top of the series),inconclusive: 64% [activator]
same,"activity change, negative = inhibition",[2]; at 7.69 µM (top of the series),inconclusive: -48.9% [inhibitor]
same,"activity, negative = inhibition",[3],inactive: 10.3% [at 7.69 µM]
Cn1cnc([N+](=O)[O-])c1Sc1ncnc2nc[nH]c12,"activity change, negative = inhibition",[1]; at 17.2 µM (top of the series),inconclusive: 34.4% [activator]
same,Potency,[4],active: 0.384 µM
same,Potency,[5],active: 2.04 µM
same,Potency,[6],inconclusive: 22.8 µM [partial curve]
same,Potency,[7],active: 0.529 µM
N=C(N)c1ccc(OCCCCCOc2ccc(C(=N)N)cc2)cc1,"activity change, negative = inhibition",[1]; at 17.2 µM (top of the series),inconclusive: 1.72% [inhibitor]
same,Potency,[8],inconclusive: 79.6 µM [single point]
same,Potency,[4],inconclusive: 88.4 µM [partial curve]
same,Potency,[5],inconclusive: 121 µM [partial curve]
same,"activity change, negative = inhibition",[2]; at 17.2 µM (top of the series),inconclusive: -47.8% [inhibitor]
O=C1c2ccccc2S(=O)(=O)N1CCCCN1CCN(c2ncccn2)CC1,Potency,[9],inconclusive: 31.6 µM [decreasing]
CC(=O)Oc1cc(C(C)C)c(OCCN(C)C)cc1C,"activity change, negative = inhibition",[1]; at 17.2 µM (top of the series),inconclusive: 37.7% [activator]
same,"activity change, negative = inhibition",[2]; at 17.2 µM (top of the series),inconclusive: -48.5% [inhibitor] and inconclusive: -84.5% [inhibitor]
same,"activity change, negative = inhibition",[2]; at 38 µM (top of the series),inconclusive: -39.5% [inhibitor]
CC(CN1c2ccccc2Sc2ccccc21)N(C)C (stereo not given),"activity change, negative = inhibition",[1]; at 17.2 µM (top of the series),inconclusive: 40.6% [activator]
same,"activity change, negative = inhibition",[2]; at 17.2 µM (top of the series),active: -73.5%
CC(C)N=c1cc2n(-c3ccc(Cl)cc3)c3ccccc3nc-2cc1Nc1ccc(Cl)cc1,"activity change, negative = inhibition",[1]; at 17.2 µM (top of the series),inconclusive: 38.6% [activator] and inconclusive: 22.1% [activator]
same,"activity change, negative = inhibition",[2]; at 17.2 µM (top of the series),inconclusive: -38.8% [inhibitor] and active: -120%
same,"activity, negative = inhibition",[3],inconclusive: -17.1% [inhibitor]
NC(=NCCCCCCN=C(N)/N=C(\N)Nc1ccc(Cl)cc1)/N=C(\N)Nc1ccc(Cl)cc1,"activity change, negative = inhibition",[1]; at 17.2 µM (top of the series),inconclusive: -61% [inhibitor]
same,Potency,[8],inconclusive: 63.7 µM [single point]
same,Potency,[5],active: 45.6 µM
same,"activity change, negative = inhibition",[2]; at 17.2 µM (top of the series),inconclusive: -63.6% [inhibitor]
CNCCCC1c2ccccc2C=Cc2ccccc21,"activity change, negative = inhibition",[1]; at 38 µM (top of the series),inconclusive: 31% [activator]
same,"activity change, negative = inhibition",[2]; at 17.2 µM (top of the series),inconclusive: -38.4% [inhibitor] and active: -94%
same,"activity change, negative = inhibition",[2]; at 38 µM (top of the series),inconclusive: -71.5% [inhibitor]
Cc1cccc(C)c1NC(=O)CN1CCN(CCCC(c2ccc(F)cc2)c2ccc(F)cc2)CC1,Potency,[9],inconclusive: 15.8 µM [decreasing]
NC(=O)c1cccc(N)c1,Potency,[9],inconclusive: 39.8 µM [decreasing]
CCCCCCC[N+](CC)(CC)CCCCc1ccc(Cl)cc1,"activity change, negative = inhibition",[1]; at 17.2 µM (top of the series),inconclusive: -41.8% [inhibitor]
same,"activity change, negative = inhibition",[2]; at 17.2 µM (top of the series),inconclusive: -76.2% [inhibitor]
Cc1cc2c(C(C)C)c(O)c(O)c(C=O)c2c(O)c1-c1c(C)cc2c(C(C)C)c(O)c(O)c(C=O)c2c1O,"activity change, negative = inhibition",[1]; at 17.2 µM (top of the series),inconclusive: -51.7% [inhibitor]
same,Potency,[9],active: 15.8 µM and inconclusive: 39.8 µM [decreasing]
same,"activity change, negative = inhibition",[2]; at 17.2 µM (top of the series),active: -68.3%
same,"activity, negative = inhibition",[3],inconclusive: -74% [inhibitor]
COc1cc2c(cc1OC)-c1cc(=Nc3c(C)cc(C)cc3C)n(C)c(=O)n1CC2,"activity change, negative = inhibition",[1]; at 38 µM (top of the series),inactive: -25.7%
same,"activity, negative = inhibition",[3],inconclusive: -47.8% [inhibitor] [at 38 µM]
COc1cccc2c1C(=O)c1c(O)c3c(c(O)c1C2=O)C[C@@](O)(C(=O)CO)C[C@@H]3O[C@H]1C[C@H](N)[C@H](O)[C@H](C)O1,"activity change, negative = inhibition",[1]; at 17.2 µM (top of the series),inconclusive: -45.4% [inhibitor]
same,Potency,[4],active: 0.0218 µM
same,Potency,[10],inconclusive: 34.9 µM [partial curve]
same,"activity change, negative = inhibition",[2]; at 17.2 µM (top of the series),inconclusive: -76.5% [inhibitor]
same,"activity, negative = inhibition",[3],inconclusive: 105% [activator]
Oc1c(I)cc(I)c2cccnc12,"activity change, negative = inhibition",[1]; at 17.2 µM (top of the series),inconclusive: -40.2% [inhibitor]
same,"activity change, negative = inhibition",[2]; at 17.2 µM (top of the series),inconclusive: -52.5% [inhibitor]
same,"activity, negative = inhibition",[3],inconclusive: -60.9% [inhibitor]
COc1cccc2c1C(=O)c1c(O)c3c(c(O)c1C2=O)C[C@@](O)(C(C)=O)C[C@@H]3O[C@H]1C[C@H](N)[C@H](O)[C@H](C)O1,"activity change, negative = inhibition",[1]; at 17.2 µM (top of the series),active: -116%
same,Potency,[8],active: 4.61 µM
same,Potency,[5],active: 0.00723 µM
same,"activity change, negative = inhibition",[2]; at 17.2 µM (top of the series),active: -129%
same,"activity, negative = inhibition",[3],active: -103%
